In all, about 150,000 compounds went through this assay and about 540 (0.36%) showed an effect of 50% or more. Some of the results follow.

The subject of the assay is Plasmodium falciparum. As to the kind of experiment: Primary screen in NF54 nanoGlo assay, in single point, at 2uM, 72h; a lower Z score goes with more inhibition. Format: functional, Erythrocyte. Particulars: timepoint 72 hour.
The % Inhibition is the change of the read-out against control, counted positive when it falls. On to `CCC1(CC)CN(C(=O)c2cc(C(C)(C)N)no2)c2ccccc21`, for which the “% Inhibition” value turned out to be 1% and the Z score is -0.16.
For the compound `CCc1nn(C)c(Cl)c1CN1C[C@H]2CC[C@@H](C1)[C@H]2OC`, the “% Inhibition” value is on record as -3% and the Z score is recorded as 0.47.
Regarding `C#CC[C@H](CC(F)(F)F)NC(=O)Cc1nnc(-c2ccccc2OC)o1`, the “% Inhibition” value was -11% and the Z score turned out to be 1.7.
Turning to `O=C(C1CCOCC1)N1CC[C@H](CCOc2ccccc2F)C1`, the “% Inhibition” value was -7% and the Z score worked out at 1.25.
As for `CC(C)c1nccc(CNCc2n[nH]c(=O)[nH]2)n1`, the “% Inhibition” value worked out at 10% and the Z score is on record as -1.29.
On the same counts, the results for `CCOCCCNC(=O)C1CCOCC1` are 13% and -1.7.
On the same counts, the results for `CCC(=O)N1CCc2cc(Br)c(S(=O)(=O)CCC(=O)N3CCOCC3)cc21` are -15% and 1.5.
`Cn1ccnc1C(NCCOC1CCCCO1)C(C)(C)CO` (stereo unspecified): the “% Inhibition” value is recorded as -10% and the Z score is listed as 1.3.
On the same counts, the results for `O=C(NCc1nc2cccnc2n1Cc1ccc(F)cc1)c1cccnc1` are 1% and -0.11.
For `COc1ccccc1N1CCN(C(=O)CN(Cc2ccco2)S(=O)(=O)c2ccc(C)cc2)CC1`, the “% Inhibition” value was -18% and the Z score came to 3.43.
In the same order, the values of `CC(C)(CN1CCC[C@H]1C(=O)NCC1CCCCC1)S(C)(=O)=O` are 1% and -0.14.
On the same counts, the results for `COc1ccc(/N=C(\NCc2ccncc2)NC(=O)c2ccc(C(C)(C)C)cc2)cc1OC` are 1% and -0.24.
Consider `NC(=O)[C@H]1CCN(C(=O)Cc2csc(-c3ccccc3)n2)C1`, for which the “% Inhibition” value turned out to be 0% and the Z score was 0.03.
Regarding `CCN(CC(=O)Nc1cccc(S(N)(=O)=O)c1)CC(=O)NC(C)C`, the “% Inhibition” value was -7% and the Z score is 0.91.
With `COc1ccc(-c2csc3ncnc(NCc4ncoc4-c4ccccc4)c23)cc1`, the “% Inhibition” value is recorded as -11% and the Z score was found to be 1.23.
In the same order, the values of `c1cc(CCN2CCC[C@H]2c2cn[nH]c2)ccn1` are -1% and 0.13.
On the same counts, the results for `Cc1n[nH]c(CN(C)CCc2c(C)n[nH]c2C)n1` are 3% and -0.56.
Turning to `C=CCn1c(C(C)CC)nnc1N1CCC(CN(CC)CC(F)(F)F)C1` (stereo unspecified), the “% Inhibition” value amounted to 1% and the Z score was -0.13.
`CC(C)c1c(C(=O)NCCCN2CCOCC2)cnn1-c1nccc(-c2ccco2)n1`: the “% Inhibition” value was 6% and the Z score is given as -0.81.
On the same counts, the results for `CCOc1ccc(NC(=O)Cn2cc(S(=O)(=O)c3ccc(C)c(C)c3)c(=O)c3ccc(C)nc32)cc1` are -13% and 1.33.
As for `CCN(C(=O)COC(=O)c1c(C)nc2ccccc2c1C)c1ccc(F)cc1`, the “% Inhibition” value was -13% and the Z score was found to be 1.28.
For `CCc1ncnc(NCCc2ncn(C)c2Br)c1F`, the “% Inhibition” value is listed as -11% and the Z score stood at 2.1.
In the same order, the values of `Cc1nnc(CCC(=O)N2CC(F)(F)OC(F)(F)C2)o1` are 16% and -1.85.
As for `COCc1ccc(CN[C@@H](C)c2ccc(N3CCCNC3=O)cc2)o1`, the “% Inhibition” value is given as 0% and the Z score is on record as -0.05.
On the same counts, the results for `COC(=O)c1ccn(CC(=O)Nc2ccnn2C2CCCCC2)n1` are -8% and 1.17.
Take `Cc1cncc(S(=O)(=O)NCCCN2CCCO[C@@H](C)C2)c1`: the “% Inhibition” value is listed as -1% and the Z score was 0.07.
On the same counts, the results for `c1ccc(C2=NO[C@@H](CN3CCN(c4ncccn4)CC3)C2)cc1` are -11% and 1.91.
On the same counts, the results for `Cc1ccccc1CC(=O)N1CC(Cc2nncn2C2CCCC2)C1` are -11% and 1.55.
On the same counts, the results for `C[C@H](NC(=O)c1cc(Cl)cn1C)c1nncn1C` are -6% and 1.09.
Regarding `CCN(Cc1c(F)cccc1F)[C@H]1CCNC1=O`, the “% Inhibition” value was -10% and the Z score amounted to 1.34.
On the same counts, the results for `COc1ccc(OC)c(NC(=O)N2CCCn3nc(-c4cccn4C)cc32)c1` are 12% and -1.57.
In the same order, the values of `COc1ccc(OCc2cc(C(=O)NCC3CCOCC3)n[nH]2)c(Cl)c1` are 13% and -1.71.
Regarding `CN1CC[C@@H]2CN(Cc3ccc(-c4ccccc4C#N)o3)C[C@@H]21`, the “% Inhibition” value is given as -3% and the Z score was determined as 0.43.
Turning to `O=C(Nc1cccc2c1OCCN2C(=O)C1CCOCC1)C1CCOCC1`, the “% Inhibition” value is listed as -9% and the Z score worked out at 0.76.
In the same order, the values of `CN1CC[C@H](N(C)C(=O)Cc2ccccc2O)C1=O` are -6% and 0.76.
On the same counts, the results for `Cn1cc(N2CCN(C(=O)[C@H]3CCCN(C(=O)c4ccc(F)cc4)C3)CC2)cn1` are 0% and -0.02.
On the same counts, the results for `Cc1ccc(NC(=O)CCN(C)CCn2ccnc2C)cc1Cl` are -2% and 0.33.
As to `CC(C)[C@H](Cn1ccnn1)NC(=O)c1ccc(Cl)c(Cl)c1`, the “% Inhibition” value was -4% and the Z score is on record as 0.75.
On the same counts, the results for `CC1CN(C)c2ccccc2CN1C(=O)C(=O)Nc1ccc(S(=O)(=O)C(C)C#N)cc1` (stereo unspecified) are -18% and 1.69.
On the same counts, the results for `O[C@H]1CN(Cc2nc3c(s2)CCCC3)C[C@@H]1F` are -16% and 1.61.
On the same counts, the results for `O=S(=O)(Cc1ccon1)N1CCN(c2ncc(Cl)cc2F)CC1` are 1% and -0.11.
Consider `Cn1c(C(=O)O)ccc1-c1ccccc1Cl`, for which the “% Inhibition” value is recorded as -7% and the Z score came out at 1.1.
With `N[C@@](C(=O)O)(c1cccc(C(F)(F)F)c1)C(F)(F)F`, the “% Inhibition” value is listed as -14% and the Z score was 1.86.

For the origin of these results see ChEMBL document CHEMBL4888484, “Replenishing the malaria drug discovery pipeline: Screening and hit evaluation of the MMV Hit Generation Library 1 (HGL1) against asexual blood stage Plasmodium falciparum ,using a nano luciferase reporter read-out” (2022).
